# Paper PMC4336329 (PLoS ONE, 2015)
# In all, about 310,000 compounds went through this assay and about 2,200 (0.71%) showed an effect of 50% or more. The effect is printed as a negative number. Some of the results follow.
# Molecular target: human ether-à-go-go-related gene (hERG) potassium channel (human, UniProt Q12809)
# Test: primary screen, population patch clamp on CHO cells stably expressing hERG
# human ether-à-go-go-related gene (hERG) potassium channel, sequence (Q12809 whole entry, looked up): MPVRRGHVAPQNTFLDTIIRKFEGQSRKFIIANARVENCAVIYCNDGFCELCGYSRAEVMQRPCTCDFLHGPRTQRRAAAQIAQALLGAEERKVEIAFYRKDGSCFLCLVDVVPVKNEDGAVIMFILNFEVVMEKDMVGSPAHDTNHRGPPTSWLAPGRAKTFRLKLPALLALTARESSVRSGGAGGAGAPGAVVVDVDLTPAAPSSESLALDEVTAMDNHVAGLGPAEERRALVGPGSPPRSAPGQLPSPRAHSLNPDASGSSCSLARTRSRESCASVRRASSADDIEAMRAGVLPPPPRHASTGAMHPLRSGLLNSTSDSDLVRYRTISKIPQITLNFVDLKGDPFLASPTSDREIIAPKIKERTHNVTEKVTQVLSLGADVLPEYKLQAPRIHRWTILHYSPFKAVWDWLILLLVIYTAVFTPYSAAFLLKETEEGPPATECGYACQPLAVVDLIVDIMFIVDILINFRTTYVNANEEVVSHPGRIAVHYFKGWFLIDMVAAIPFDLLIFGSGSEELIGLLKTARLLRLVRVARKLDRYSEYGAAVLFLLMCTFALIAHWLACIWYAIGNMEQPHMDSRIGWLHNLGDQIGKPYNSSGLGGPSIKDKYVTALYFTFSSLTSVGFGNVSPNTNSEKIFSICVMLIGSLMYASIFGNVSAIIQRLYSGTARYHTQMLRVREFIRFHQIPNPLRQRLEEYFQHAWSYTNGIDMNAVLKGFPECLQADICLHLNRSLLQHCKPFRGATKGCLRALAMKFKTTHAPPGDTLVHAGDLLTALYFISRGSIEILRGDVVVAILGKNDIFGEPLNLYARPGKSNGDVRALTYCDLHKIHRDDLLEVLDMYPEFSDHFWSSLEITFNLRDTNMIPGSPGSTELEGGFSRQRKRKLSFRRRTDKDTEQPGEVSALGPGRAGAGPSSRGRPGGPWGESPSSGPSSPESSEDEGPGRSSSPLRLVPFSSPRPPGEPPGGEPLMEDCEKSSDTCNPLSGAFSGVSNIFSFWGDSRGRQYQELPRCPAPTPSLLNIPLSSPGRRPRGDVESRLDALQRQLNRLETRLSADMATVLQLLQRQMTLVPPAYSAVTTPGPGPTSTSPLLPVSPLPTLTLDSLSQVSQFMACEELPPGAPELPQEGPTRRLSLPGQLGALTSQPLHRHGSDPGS
row,SMILES,"hERG current change (%, negative = inhibition) at 1uM [%]"
1,CCC1(CC)C(=O)C2=C3C1[C@H](C(=O)OC)CC(C(=O)OC)C[C@H]3[C@H]1C(=O)N(c3ccccc3)C(=O)[C@H]1[C@H]2C (stereo partly shown),9.42
2,CCOc1cc(S(=O)(=O)NCc2cccs2)ccc1Cl,8.87
3,COc1ccc(CCn2nnc(-c3ccc(NC(C)=O)c(Cl)c3)n2)cc1,10.7
4,COc1ccc(N2C(=O)/C(=C/c3cc(C)n(-c4ccc(C)cn4)c3C)C(=O)NC2=S)c(OC)c1,9.98
5,COc1cc(/C=N/NC(=O)c2nc3ccccn3c2C)cc(OC)c1O,7.34
6,CSc1ccc(Cl)c(C(=O)Nc2nccs2)c1,6.39
7,CCc1ccc(/C=N/NC(=O)c2nnn(-c3nonc3N)c2C(C)C)cc1,20.8
8,CCc1n[nH]c(=S)n1/N=C/C(C)=C\c1ccccc1,15.4
9,Cc1cc2ccccc2n1CCC(=O)O,8.9
10,CC1=C(OC(=O)c2ccc(Br)cc2)C(C)(C)C(c2ccccc2)OC1=O (stereo not shown),12
11,Fc1ccccc1-c1nc2nc3ccccc3nc2n1CC1CCCO1 (stereo not shown),9.13
12,COc1ccc(-c2cn3c(C)c(C(=O)NCc4ccc5c(c4)OCO5)sc3n2)cc1,9.64
13,COc1ccc(N(C)C(=O)C2CCN(S(=O)(=O)c3cccc4nonc34)CC2)c(OC)c1,3.56
14,CCC(C)Sc1cc(-c2nc3ccc(C)cn3c2NCc2ccccc2)ccc1OC.O=C(O)C(F)(F)F (stereo not shown),8.95
15,O=C1CC(=O)N(Cc2ccco2)C(=S)N1,7.25
16,NC(=O)NOCc1ccc(F)cc1Cl,15
17,COc1cccc(CCc2nnc(CCC(=O)NC(C)c3c(C)nn(C)c3C)o2)c1 (stereo not shown),13.8
18,O=C(O)c1ccc(N=NNc2cccc([N+](=O)[O-])c2)cc1,18.8
19,CO[C@H]1[C@@H]2C=CO[C@@H](O[C@H]3O[C@@H](CO)[C@H](O)[C@@H](O)[C@@H]3O)[C@@H]2[C@@]2(CO)O[C@@H]12,-5.17
20,COc1ccc(N)cc1-n1cnnn1,30.1
21,CC(=O)N1c2ccc(S(=O)(=O)N(C)Cc3ccco3)cc2CC1C (stereo not shown),5.29
22,Cc1ccc(C(=O)Nc2ccc(C(=O)N/N=C/c3c[nH]c4ccccc34)cc2)cc1,2.86

row,SMILES,"hERG current change (%, negative = inhibition) at 1uM [%]"
1,Cc1ccc2c(-c3csc(N)n3)c[nH]c2c1,18.9
2,O=C(NCCNC(=O)c1cnccn1)c1ccc(Cl)c(Cl)c1,2.07
3,COc1ccccc1C(=O)n1nc(-c2ccc(Cl)cc2)nc1N,-0.0851
4,CN(C)/C=C(\C#N)C(=O)N/N=C/c1ccc(Cl)cc1,2.3
5,CCCn1c(C)cc(C(=O)Cn2nnc3ccccc3c2=O)c1C,5.87
6,O=C(Nc1ccc2ccccc2c1)c1ccccc1O,12
7,Cn1c(=O)cc(OCC(=O)N2CCC(N3CCCCC3)CC2)c2ccccc21,8.88
8,O=C(CSc1nnc(-c2cccs2)n1-c1ccccc1)NCC1CCCO1 (stereo not shown),-38.7
9,CCCCn1c(SCC(=O)NCc2ccco2)nc2ccc(N3CCOCC3)cc2c1=O,4.91
10,Cn1c(CNC(=O)OC(C)(C)C)nnc1SCC(=O)N1CCOCC1,12.3
11,COc1ccc(C(=O)NCC2COc3ccccc3O2)cc1S(=O)(=O)N1CCOCC1 (stereo not shown),-3.4
12,C/C(=N\NC(=O)c1ccncc1)c1ccc(NC(=O)c2ccc(Cl)cc2)cc1,11.5
13,Cc1ccc(N(CC(=O)NCC2CCCO2)C(=O)CCC(=O)Nc2nccs2)cc1 (stereo not shown),6.44
14,Cc1ccccc1C(=O)N1CCC(C(=O)NC2CCCCC2)CC1,13.5
15,COc1cccc(Nc2nc(-c3sc(N)nc3C)cs2)c1,0.629
16,COc1ccccc1C(=O)NC(CCSC)C(=O)NCC(c1cccs1)N(C)C (stereo not shown),19
17,CCOC(=O)c1c(C)oc2c1c1c(c3ccccc32)OCN(Cc2ccccn2)C1,0.17
18,CN(Cc1nccs1)C(=O)c1ccc2nc(Cc3ccccc3F)oc2c1,8.66
19,CCN(CC)CCC(c1ccc2c(c1)OCO2)c1c(OC)cc(OC)c2c(-c3ccccc3)cc(=O)oc12 (stereo not shown),-2.04
20,N/C(=N\OC(=O)CCC1CCCC1)c1ccc([N+](=O)[O-])cc1,10.1
21,O=C1NC(C(F)(F)F)(C(F)(F)F)N=C2SC=CN12,1.69
22,CNc1cnn(-c2ccccc2)c(=O)c1Cl,11.9

row,SMILES,"hERG current change (%, negative = inhibition) at 1uM [%]"
1,CCOC(=O)c1c(C)[nH]c(C(=O)OCC(=O)Nc2ccccc2)c1C,20
2,CC(C)OC(=O)c1cc(C(=O)c2cc(F)ccc2O)coc1=N,-1.8
3,Cc1nc(N/N=C/c2ccccc2)nc(N(C)c2ccccc2)c1[N+](=O)[O-],11.3
4,COC(=O)c1c(NC(=O)CCCC(=O)O)sc2c1CCCCC2,8.9
5,O=C(Nc1ccc(F)cc1)N1CCN(c2ccc(F)cc2)CC1,-22
6,Cc1ccc(CNC(=O)CCNS(=O)(=O)c2ccc3c(c2)c(=O)n(C)c(=O)n3C)cc1,17.1
7,COc1cc([N+](=O)[O-])cc(/C=N/NC(=O)c2cncc(Br)c2)c1O,5.85
8,O=C(CN(c1cc(C(F)(F)F)ccc1Cl)S(=O)(=O)c1ccccc1)NCc1cccnc1,14.3
9,Cc1cc(NC(=O)CSc2n[nH]c(N)n2)no1,5.17
10,Cc1ccc(C(=O)c2cc(C)sc2N)cc1,9.34
11,CCOc1ccccc1CNC(=O)c1ccc(NC(=O)C2=CSCCO2)cc1,12.5
12,CCc1cccc(C)c1NC(=S)N(CCN(C)C)C(C)c1cccnc1 (stereo not shown),10.3
13,O=C(NCC1CCCO1)C1c2ccccc2C(=O)N1Cc1ccc2c(c1)OCO2 (stereo not shown),-8.67
14,Cc1csc(=NC(=O)c2ccccc2)n1C,5.86
15,Cc1ccc(S(=O)(=O)N2CCN(C(=O)N3CCOCC3)C2C(C)C)cc1 (stereo not shown),0.261
16,COc1ccc(C[C@H]2c3cc(O)c(OC)cc3CC[N+]2(C)[O-])cc1O (stereo partly shown),16.9
17,CC1=CC(C)(C)N(C(=O)CSc2nnc(N)s2)c2cc(C)c(C)cc21,2.05
18,Cc1cccc(NC(=O)CCc2ccccc2)c1C,18.1
19,O=c1c2c(-c3cccc([N+](=O)[O-])c3)ccnc2[nH]n1-c1ccccc1,10.9
20,Cc1ccc(NC(=O)CC2SCCNC2=O)cc1[N+](=O)[O-] (stereo not shown),14.5
21,Cc1cccc(NC(=O)CCSc2nc(C)cc(C)n2)c1,6.86
22,Nc1ccc(N=Nc2ccccc2O)c(N)c1,9.44

row,SMILES,"hERG current change (%, negative = inhibition) at 1uM [%]"
1,Cc1cccc(CNC(=O)C2CCC(=O)N(C3CCCCCC3)C2)c1 (stereo not shown),8.01
2,CCC(=O)Nc1cccc(-c2nc3ccc(C)cc3o2)c1,11.4
3,Cc1ccc(C)c(NC(=O)C(c2ccccc2)N2CCOCC2)c1 (stereo not shown),9.07
4,N#CCOC(=O)[C@H](Cc1c[nH]c2ccccc12)NS(=O)(=O)c1ccc(Cl)cc1,12.2
5,Cc1cc(C)cc(C(=O)NC(CC(N)=O)c2ccc(N3CCC(Br)CC3)c([N+](=O)[O-])c2)c1 (stereo not shown),10.6
6,Cc1nc2c(ncn2-c2ccccc2)c(=O)n1NC(=O)CN1CCCC1,9.44
7,CSc1cccc(NC(=S)N(Cc2ccccc2)Cc2cccnc2)c1,15.5
8,COCCNC(=O)c1ccc(CN2CCOCC2)cc1,10.7
9,Fc1ccc(C2=CC(c3ccco3)n3nnnc3N2)cc1 (stereo not shown),2.25
10,Cc1ccc(-c2cnn(-c3cccc([N+](=O)[O-])c3)c2N)cc1,-12.9
11,COc1ccc(CN2C(=O)NC(C)(c3ccc(C)cc3)C2=O)cc1F (stereo not shown),7.12
12,CC(=O)Nc1c(C)cc(OCC(=O)O)cc1C,1.1
13,CCc1ccc(-n2c(CSc3nnnn3-c3ccccc3)nc3ccccc3c2=O)cc1,1.25
14,CC(=O)NC1(C(F)(F)F)NC(=O)N(c2ccc(F)cc2)C1=O (stereo not shown),10.6
15,O=[N+]([O-])c1ccc(CN2CCN(c3ccc(Cl)cc3)CC2)o1,4.89
16,COc1cccc(NC(=O)CSc2nncn2-c2ccccn2)c1,-3.76
17,Cc1ccc(-c2nc3ccccc3c(=O)n2-c2cc(C)ccn2)cc1,-1.72
18,COc1ccccc1CCNC(=O)CSc1ccc(-c2cccs2)nn1,8.97
19,Cc1ccc2c(c1)N(C(=O)CCC(=O)NCc1cccc(Br)c1)CC(C)O2 (stereo not shown),-2.96
20,C=CCn1c(=S)[nH]c2scc(-c3ccc(C)o3)c2c1=O,13.7
21,COc1ccccc1CNC(=O)C1CCCN(S(=O)(=O)c2ccc3c(c2)C(C)(C)C(=O)N3C)C1 (stereo not shown),3.3
22,O=C(Nc1cccnc1)c1ccc(Oc2ccccc2)cc1,9.53
